Results reported in paper PMC4237283.
Where two headings read alike, the source gives them in different places. No constants are given. Whether binding was seen depends on the method and setting. In cells and extracts the contact can be indirect. Some binding calls cover weakened binding; strength is not graded here. Values belong to the molecule of their own block, whether it stands above or below them.

Chains of the proteins cited; added tags and fusions are not shown. Lines headed by an entry give the natural chain unless they say otherwise; changes in a name come on top. A line that says so, or that is headed by a name, gives the form on record, which may keep a tag or linker. Residues count along the entry.
UniProt O08852: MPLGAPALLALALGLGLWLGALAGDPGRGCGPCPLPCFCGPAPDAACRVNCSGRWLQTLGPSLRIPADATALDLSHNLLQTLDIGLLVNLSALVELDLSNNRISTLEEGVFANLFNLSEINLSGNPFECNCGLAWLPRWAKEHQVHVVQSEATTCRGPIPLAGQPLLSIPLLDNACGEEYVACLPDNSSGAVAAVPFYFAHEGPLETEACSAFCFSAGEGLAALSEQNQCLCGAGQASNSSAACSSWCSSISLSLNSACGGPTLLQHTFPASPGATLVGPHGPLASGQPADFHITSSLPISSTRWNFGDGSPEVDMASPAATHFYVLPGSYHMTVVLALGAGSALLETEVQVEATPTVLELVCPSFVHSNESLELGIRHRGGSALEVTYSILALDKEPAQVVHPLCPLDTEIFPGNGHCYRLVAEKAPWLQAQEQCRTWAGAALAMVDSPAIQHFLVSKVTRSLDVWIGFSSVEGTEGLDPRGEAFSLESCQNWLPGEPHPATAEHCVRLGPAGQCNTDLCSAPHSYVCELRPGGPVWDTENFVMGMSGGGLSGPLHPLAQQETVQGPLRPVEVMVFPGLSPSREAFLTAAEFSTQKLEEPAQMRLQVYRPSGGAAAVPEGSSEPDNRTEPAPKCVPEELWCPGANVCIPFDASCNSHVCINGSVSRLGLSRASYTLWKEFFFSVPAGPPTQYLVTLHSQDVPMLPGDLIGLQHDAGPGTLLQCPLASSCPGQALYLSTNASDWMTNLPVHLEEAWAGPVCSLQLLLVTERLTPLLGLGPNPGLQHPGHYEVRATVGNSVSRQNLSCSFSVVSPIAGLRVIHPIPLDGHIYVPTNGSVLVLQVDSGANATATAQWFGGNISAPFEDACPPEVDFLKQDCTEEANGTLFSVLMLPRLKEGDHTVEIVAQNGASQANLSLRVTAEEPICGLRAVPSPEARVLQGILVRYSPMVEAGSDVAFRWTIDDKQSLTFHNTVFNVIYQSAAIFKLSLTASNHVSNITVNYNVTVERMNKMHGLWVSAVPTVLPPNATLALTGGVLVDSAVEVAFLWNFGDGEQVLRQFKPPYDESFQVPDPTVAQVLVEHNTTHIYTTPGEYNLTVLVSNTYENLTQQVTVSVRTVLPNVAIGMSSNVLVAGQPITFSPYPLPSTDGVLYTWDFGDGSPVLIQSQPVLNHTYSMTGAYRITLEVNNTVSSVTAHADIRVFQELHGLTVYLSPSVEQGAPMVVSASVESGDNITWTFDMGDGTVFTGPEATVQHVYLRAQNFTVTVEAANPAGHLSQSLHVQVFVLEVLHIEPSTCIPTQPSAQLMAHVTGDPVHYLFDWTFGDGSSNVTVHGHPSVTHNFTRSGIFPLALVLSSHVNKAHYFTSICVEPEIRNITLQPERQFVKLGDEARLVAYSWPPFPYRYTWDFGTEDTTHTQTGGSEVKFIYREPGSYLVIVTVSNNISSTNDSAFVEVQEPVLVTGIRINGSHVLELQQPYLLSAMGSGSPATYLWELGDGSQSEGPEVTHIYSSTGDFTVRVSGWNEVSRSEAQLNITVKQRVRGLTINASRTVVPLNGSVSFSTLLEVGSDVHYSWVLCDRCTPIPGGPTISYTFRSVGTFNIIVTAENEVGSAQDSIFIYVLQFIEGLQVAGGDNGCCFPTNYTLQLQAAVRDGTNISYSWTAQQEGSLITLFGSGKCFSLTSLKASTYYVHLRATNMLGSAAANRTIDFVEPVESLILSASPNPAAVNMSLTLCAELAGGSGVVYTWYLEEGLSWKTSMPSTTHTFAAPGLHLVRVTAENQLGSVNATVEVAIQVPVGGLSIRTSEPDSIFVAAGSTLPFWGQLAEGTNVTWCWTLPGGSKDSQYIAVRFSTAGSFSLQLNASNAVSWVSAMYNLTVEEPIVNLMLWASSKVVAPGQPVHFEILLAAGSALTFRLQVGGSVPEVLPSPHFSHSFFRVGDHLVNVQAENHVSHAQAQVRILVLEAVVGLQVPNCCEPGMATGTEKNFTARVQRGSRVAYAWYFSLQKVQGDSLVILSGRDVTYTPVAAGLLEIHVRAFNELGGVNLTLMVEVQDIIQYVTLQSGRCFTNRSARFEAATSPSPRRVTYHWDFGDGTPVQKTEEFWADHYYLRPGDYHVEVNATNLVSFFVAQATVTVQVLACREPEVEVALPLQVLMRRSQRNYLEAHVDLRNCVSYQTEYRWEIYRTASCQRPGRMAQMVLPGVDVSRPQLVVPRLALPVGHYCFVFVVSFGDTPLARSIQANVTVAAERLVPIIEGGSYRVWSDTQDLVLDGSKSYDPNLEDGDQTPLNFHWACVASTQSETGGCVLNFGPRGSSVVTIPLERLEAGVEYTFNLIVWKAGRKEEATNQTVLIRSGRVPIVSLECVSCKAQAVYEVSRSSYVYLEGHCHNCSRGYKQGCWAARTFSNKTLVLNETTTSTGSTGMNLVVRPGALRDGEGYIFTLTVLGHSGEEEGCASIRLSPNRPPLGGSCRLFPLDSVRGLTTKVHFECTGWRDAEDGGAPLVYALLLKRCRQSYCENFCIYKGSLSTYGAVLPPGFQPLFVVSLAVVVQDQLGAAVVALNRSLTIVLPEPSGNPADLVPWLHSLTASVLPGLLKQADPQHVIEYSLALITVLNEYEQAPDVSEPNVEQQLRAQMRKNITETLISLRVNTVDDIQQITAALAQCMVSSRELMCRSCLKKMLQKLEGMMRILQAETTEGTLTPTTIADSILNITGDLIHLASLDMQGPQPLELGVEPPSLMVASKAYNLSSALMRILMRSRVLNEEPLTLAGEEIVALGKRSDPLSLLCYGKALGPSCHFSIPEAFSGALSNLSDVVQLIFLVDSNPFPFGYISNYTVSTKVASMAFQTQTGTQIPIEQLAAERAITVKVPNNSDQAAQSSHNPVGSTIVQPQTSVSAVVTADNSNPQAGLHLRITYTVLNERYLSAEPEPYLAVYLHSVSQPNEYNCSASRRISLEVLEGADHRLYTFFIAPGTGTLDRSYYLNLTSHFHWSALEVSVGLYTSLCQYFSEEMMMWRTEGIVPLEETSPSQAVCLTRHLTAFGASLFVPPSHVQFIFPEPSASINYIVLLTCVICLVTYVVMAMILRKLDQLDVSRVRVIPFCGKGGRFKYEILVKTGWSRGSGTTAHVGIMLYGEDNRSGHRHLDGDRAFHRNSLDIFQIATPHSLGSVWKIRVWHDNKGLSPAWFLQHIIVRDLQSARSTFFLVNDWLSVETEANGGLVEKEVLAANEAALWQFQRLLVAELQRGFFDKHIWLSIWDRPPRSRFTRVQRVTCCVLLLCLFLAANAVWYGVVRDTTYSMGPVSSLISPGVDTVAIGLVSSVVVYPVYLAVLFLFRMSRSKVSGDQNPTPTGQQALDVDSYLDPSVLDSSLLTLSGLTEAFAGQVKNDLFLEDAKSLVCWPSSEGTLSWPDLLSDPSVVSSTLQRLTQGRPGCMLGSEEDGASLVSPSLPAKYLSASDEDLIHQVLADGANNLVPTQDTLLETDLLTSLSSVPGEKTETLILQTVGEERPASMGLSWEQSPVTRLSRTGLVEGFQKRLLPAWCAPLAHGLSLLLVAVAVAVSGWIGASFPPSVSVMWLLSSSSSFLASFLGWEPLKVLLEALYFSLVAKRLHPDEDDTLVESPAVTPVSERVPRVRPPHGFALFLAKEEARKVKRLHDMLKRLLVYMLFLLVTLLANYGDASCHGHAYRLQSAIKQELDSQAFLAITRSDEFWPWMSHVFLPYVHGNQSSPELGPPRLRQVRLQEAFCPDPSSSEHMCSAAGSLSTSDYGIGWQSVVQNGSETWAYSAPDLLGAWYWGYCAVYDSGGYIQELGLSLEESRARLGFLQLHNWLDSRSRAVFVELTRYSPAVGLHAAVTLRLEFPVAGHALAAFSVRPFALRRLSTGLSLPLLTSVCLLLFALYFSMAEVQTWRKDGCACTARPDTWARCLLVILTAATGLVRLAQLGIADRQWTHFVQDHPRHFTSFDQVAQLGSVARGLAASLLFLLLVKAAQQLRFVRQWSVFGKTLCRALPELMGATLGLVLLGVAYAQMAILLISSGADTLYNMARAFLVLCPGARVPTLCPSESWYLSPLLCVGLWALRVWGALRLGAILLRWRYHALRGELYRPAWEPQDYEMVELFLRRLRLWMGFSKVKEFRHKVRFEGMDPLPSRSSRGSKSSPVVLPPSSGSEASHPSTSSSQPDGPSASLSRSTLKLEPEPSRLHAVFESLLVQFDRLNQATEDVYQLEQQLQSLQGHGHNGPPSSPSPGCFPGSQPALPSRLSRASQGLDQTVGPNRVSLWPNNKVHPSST
Endogenous mouse polycystin-1 (mouse (endogenous in MEFs, CD cells, kidney)): residues 24-4293 of O08852
Mouse polycystin-1 terminating at R4218X with a C-terminal FLAG tag before the stop codon: residues 24-4217 of O08852
UniProt P61750: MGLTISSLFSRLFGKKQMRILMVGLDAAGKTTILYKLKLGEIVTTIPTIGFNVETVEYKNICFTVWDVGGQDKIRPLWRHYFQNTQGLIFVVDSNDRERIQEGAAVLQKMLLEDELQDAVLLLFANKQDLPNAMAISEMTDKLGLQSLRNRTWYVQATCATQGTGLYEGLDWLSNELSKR
UniProt A0A8I3NZH4: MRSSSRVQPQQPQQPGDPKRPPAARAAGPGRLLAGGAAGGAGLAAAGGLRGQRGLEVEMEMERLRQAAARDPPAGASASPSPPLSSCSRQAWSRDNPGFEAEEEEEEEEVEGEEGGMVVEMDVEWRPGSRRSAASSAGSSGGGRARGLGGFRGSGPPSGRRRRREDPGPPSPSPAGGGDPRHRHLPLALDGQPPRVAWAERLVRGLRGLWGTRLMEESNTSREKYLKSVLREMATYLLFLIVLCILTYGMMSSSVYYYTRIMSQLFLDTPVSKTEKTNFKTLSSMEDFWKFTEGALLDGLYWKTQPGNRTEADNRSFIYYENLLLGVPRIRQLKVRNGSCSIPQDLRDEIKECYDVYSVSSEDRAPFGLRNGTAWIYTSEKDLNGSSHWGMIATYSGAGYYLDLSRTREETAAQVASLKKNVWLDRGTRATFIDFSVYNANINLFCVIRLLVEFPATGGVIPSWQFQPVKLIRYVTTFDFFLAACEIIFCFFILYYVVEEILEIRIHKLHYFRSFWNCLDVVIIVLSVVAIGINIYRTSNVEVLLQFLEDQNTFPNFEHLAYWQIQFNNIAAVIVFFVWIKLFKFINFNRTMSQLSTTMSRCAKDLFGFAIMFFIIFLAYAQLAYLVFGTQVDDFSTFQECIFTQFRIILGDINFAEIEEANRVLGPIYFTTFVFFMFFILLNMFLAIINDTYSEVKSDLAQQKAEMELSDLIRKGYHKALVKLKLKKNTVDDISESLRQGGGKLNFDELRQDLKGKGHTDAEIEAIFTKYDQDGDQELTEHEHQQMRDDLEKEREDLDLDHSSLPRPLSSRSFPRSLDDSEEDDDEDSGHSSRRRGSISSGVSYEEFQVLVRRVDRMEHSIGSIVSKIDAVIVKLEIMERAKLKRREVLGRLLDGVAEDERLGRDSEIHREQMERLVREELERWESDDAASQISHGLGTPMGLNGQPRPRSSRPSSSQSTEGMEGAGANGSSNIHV
UniProt Q9WUL7: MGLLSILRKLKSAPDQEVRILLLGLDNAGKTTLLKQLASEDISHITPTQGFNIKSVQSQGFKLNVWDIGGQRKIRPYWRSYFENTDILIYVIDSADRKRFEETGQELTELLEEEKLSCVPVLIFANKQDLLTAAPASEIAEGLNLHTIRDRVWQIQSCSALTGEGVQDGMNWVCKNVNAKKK

Tests used:
[1] = target: Endogenous mouse polycystin-1 (mouse (endogenous in MEFs, CD cells, kidney)) (UniProt O08852); assay: co-IP; endogenous PC1 immunoprecipitated with anti-PC1 (α-CC) from lysates of mouse MEFs (wild type, Pkd2−/−, Pkd1^V/V), CD cells (also with Rabep1, GGA1 or Arl3 shRNA knockdown) and kidneys; western blot; lysis buffer 20 mM sodium phosphate pH 7.2, 150 mM NaCl, 1 mM EDTA, 10% glycerol, 1% Triton X-100
[2] = target: Full-length mouse polycystin-1 with a C-terminal FLAG tag, L4219P and A4222P within the coiled-coil domain (mouse) (UniProt O08852); assay: co-IP; lysates of induced MDCK cells; reciprocal immunoprecipitation with anti-FLAG or anti-PC2; western blot with anti-PC1 (7e12) or anti-PC2; lysis buffer 20 mM sodium phosphate pH 7.2, 150 mM NaCl, 1 mM EDTA, 10% glycerol, 1% Triton X-100
[3] = target: Full-length wild-type mouse polycystin-1 with a C-terminal FLAG tag (mouse) (UniProt O08852); assay: as above
[4] = target: Mouse polycystin-1 terminating at R4218X with a C-terminal FLAG tag before the stop codon (mouse) (UniProt O08852); assay: as above
[5] = target: T1, Endogenous mouse GGA1 (Golgi-localized, gamma adaptin ear-containing, ARF-binding) (mouse (endogenous in CD cells, MEFs, embryos)) (UniProt Q8R0H9); assay: co-IP; endogenous GGA1 immunoprecipitated (rabbit anti-GGA1 is listed among the IP antibodies) from CD cells with Rabep1 knockdown and from wild-type and Pkd1−/− MEFs; western blot
T1 sequence: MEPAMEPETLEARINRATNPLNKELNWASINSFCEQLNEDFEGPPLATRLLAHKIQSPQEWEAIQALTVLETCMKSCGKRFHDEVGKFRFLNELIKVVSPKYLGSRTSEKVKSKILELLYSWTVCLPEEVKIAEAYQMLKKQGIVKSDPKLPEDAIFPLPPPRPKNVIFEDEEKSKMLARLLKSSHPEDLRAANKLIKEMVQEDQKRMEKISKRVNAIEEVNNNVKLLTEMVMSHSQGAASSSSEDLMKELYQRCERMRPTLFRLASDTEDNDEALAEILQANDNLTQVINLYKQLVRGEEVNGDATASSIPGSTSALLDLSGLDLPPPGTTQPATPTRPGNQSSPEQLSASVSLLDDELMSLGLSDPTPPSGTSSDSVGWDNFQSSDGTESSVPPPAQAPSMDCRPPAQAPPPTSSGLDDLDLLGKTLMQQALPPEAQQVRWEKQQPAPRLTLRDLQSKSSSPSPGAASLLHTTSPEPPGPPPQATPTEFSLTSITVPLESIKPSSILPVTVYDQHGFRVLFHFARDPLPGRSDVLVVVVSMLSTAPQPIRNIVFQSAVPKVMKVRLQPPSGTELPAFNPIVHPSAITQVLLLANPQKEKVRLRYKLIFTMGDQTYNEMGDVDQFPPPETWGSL

[6] = target: C-terminal Myc-tagged PC1 of Pkd1^MYC/MYC embryos (mouse (endogenous knock-in in embryos)) (UniProt O08852); assay: co-IP; lysates of Pkd1^MYC/MYC, Pkd1^ΔCMYC/ΔCMYC and untagged wild-type mouse embryos; Myc-tagged PC1 immunoprecipitated (rabbit anti-Myc is listed among the IP antibodies); western blot
[7] = target: Endogenous mouse polycystin-1 (mouse (endogenous in MEFs, CD cells, kidney)) (UniProt O08852); assay: co-IP; endogenous PC1 immunoprecipitated with anti-PC1 (α-CC) from lysates of mouse MEFs (wild type, Pkd2−/−, Pkd1^V/V), CD cells (also with Rabep1, GGA1 or Arl3 shRNA knockdown) and kidneys; western blot; lysis buffer 20 mM sodium phosphate pH 7.2, 150 mM NaCl, 1 mM EDTA, 10% glycerol, 1% Triton X-100; remark: listed apart in the source
[8] = target: Non-cleavable polycystin-1 expressed from the Pkd1^V knock-in allele (mouse (endogenous knock-in in Pkd1^V/V MEFs and kidneys)) (UniProt O08852); assay: as above
[9] = target: T1, Endogenous mouse GGA1 (Golgi-localized, gamma adaptin ear-containing, ARF-binding) (mouse (endogenous in CD cells, MEFs, embryos)); assay: co-IP; endogenous GGA1 immunoprecipitated (rabbit anti-GGA1 is listed among the IP antibodies) from CD cells with Rabep1 knockdown and from wild-type and Pkd1−/− MEFs; western blot; remark: listed apart in the source

- binding [1]: no binding
Molecule: Endogenous mouse Arf4 (from UniProt P61750 1-180)

- binding [2]: no binding
- binding [3]: binds
- binding [4]: no binding
Molecule: Endogenous polycystin-2 of MDCK cells (from UniProt A0A8I3NZH4 1-977)

- binding [5]: binds
Molecule: Endogenous mouse Arl3 (from UniProt Q9WUL7 1-182)

- binding [6]: binds
- binding [7]: binds
- binding [8]: binds
B1: Endogenous mouse polycystin-2 (protein, UniProt O35245 1-966)
chain: MVNSRRVQPQPPGDAGRSPAPRASGPGRLVAGGAGLAVPGGLGEQRGLEIEMERIRQAAARDPPAGASASPSPPLSSCSRQAWSRDNPGFEAEEDDDDDEVEGEEGGMVVEMDVEWRPGSRRSASSSAVSSVGARGRGLGSYRGAAHLSGRRRRLEDQGAQCPSPAGGGDPLHRHLPLEGQPPRVAWAERLVRGLRGLWGTRLMEESNANREKYLKSVLRELVTYLFFLVVLCILTYGMMSSNVYYYTRTLSQLFIDTPVSKTEKTNFKTLSSMEDFWKFTEGSFLDGLYWKAQTSNHTQADNRSFIFYENLLLGVPRLRQLRVRNGSCSIPQDLRDEIKECYDVYSVSSEDRAPFGPRNGTAWMYTSEKELNGSSHWGIIASYSGAGYYLDLSRTREETAAQLAGLRRNFWLDRGTRAAFIDFSVYNANINLFCVVRLLAEFPATGGVVPSWQFQPVKLIRYVTAFDFFLAACEIIFCFFIIYYVVEEILEIRIHRLSYFRSFWNCLDVVIVVLSVVAMVINIYRMSNAEGLLQFLEDQNSFPNFEHVAYWQIQFNNISAVMVFLVWIKLFKFINFNRTMSQLSTTMSRCAKDLFGFTIMFSIIFLAYAQLAYLVFGTQVDDFSTFQECIFTQFRIILGDINFAEIEEANRVLGPLYFTTFVFFMFFILLNMFLAIINDSYSEVKSDLAQQKAEMELSDLIRKGCQKALVKLKLKRNTVDAISESLRQGGGKLNFDELRQDLKGKGHTDAEIEAIFTKYDQDGDQELTEREHQQMRDDLEKEREDLDLEHSSLPRPMSSRSFPRSLDDSEEEDDEDSGHSSRRRGSISSGVSYEEFQVLVRRVDRMEHSIGSIVSKIDAVIVKLEIMERAKLKRREVLGRLLDGVAEDARLGRDSEIHREQMERLVREELERWESDDAASQTGHGVSTQVGLGGQPHPRNPRPPSSQSAEGLEGGGGNGSANVHA

- binding [9]: binds
- binding [6]: binds
- binding [7]: binds
B2: Endogenous mouse Rabep1 (protein, UniProt O35551 1-862)
chain: MAQPGPAPQPDVSLQQRVAELEKINAEFLRAQQQLEQEFNQKRAKFKELYLAKEEDLKRQNAVLQAAQDDLGHLRTQLWEAQAEMENIKAIATVSENTKQEAIDEVKRQWREEVASLQAIMKETVRDYEHQFHLRLEQERAQWAQYRESAEREIADLRRRLSEGQEEENLENEMKKAQEDAEKLRSVVMPMEKEIAALKDKLTEAEDKIKELEASKVKELNHYLEAEKSCRTDLEMYVAVLNTQKSVLQEDAEKLRKELHEVCHLLEQERQQHNQLKHTWQKANDQFLESQRLLMRDMQRMEIVLTSEQLRQVEELKKKDQEEDEQQRVNKRKDNKKTDTEEEVKIPVVCALTQEESSTPLSNEEEHLDSTHGSVHSLDADLMLPSGDPFSKSDNDMFKDGLRRAQSTDSLGTSSSLQSKALGYNYKAKSAGNLDESDFGPLVGADSVSENFDTVSLGSLQMPSGFMLTKDQERAIKAMTPEQEETASLLSSVTQGMESAYVSPSGYRLVSETEWNLLQKEVHNAGNKLGRRCDMCSNYEKQLQGIQIQEAETRDQVKKLQLMLRQANDQLEKTMKEKQELEDFLKQSAEDSSHQISALVLRAQASEVLLEELQQSFSQAKRDVQEQMAVLMQSREQVSEELVRLQKDNDSLQGKHSLHVSLQLAEDFILPDTVEVLRELVLKYRENIVHVRTAADHMEEKLKAEILFLKEQIQAEQCLKENLEETLQLEIENCKEEIASISSLKAELERIKVEKGQLESTLREKSQQLESLQEMKVNLEEQLKKETAAKATVEQLMFEEKNKAQRLQTELDVSEQVQRDFVKLSQTLQVQLERIRQADSLERIRAILNDTKLTDINQLPET
